Data as given in the supplement of paper PMC4604168 (melanoma cell lines).
The list shows a part of the results. Most values come without repeats; read them as rough.

Assays:
Experiment in all cases: cell count relative to DMSO control; melanoma cells; higher = more viable cells
Details in all cases: library dose: low library concentration; 72 h
[1] = system: WM115
[2] = system: WM1716
[3] = system: WM1745
[4] = system: WM3526
[5] = system: WM3619
[6] = system: WM451Lu
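Also: cell number obtained by counting DAPI-stained nuclei in high-throughput microscope images with image analysis software, screen run in 1,536-well plates.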

| SMILES | cell count [1] [%] | cell count [2] [%] | cell count [3] [%] | cell count [4] [%] | cell count [5] [%] | cell count [6] [%] |
| --- | --- | --- | --- | --- | --- | --- |
| Nc1cccc2c1CN(C1CCC(=O)NC1=O)C2=O (centres undefined) [lenalidomide] + COc1ccc(-c2ccc3c(N4CCOCC4)nc(N4C[C@@H](C)O[C@@H](C)C4)nc3n2)cc1CO [KU0063794] (first compound 1 µM, partner dose 0.02 µM) | 85.5 | 92.5 | 98.9 | 86.7 | 76.3 | 105 |
| COCC[n+]1c2c(n(Cc3cnccn3)c1C)C(=O)c1ccccc1C2=O + CCN(CC)CCCCNc1ncc2cc(-c3cc(OC)cc(OC)c3)c(NC(=O)NC(C)(C)C)nc2n1 [PD173074] (first compound 0.0004 µM, partner dose 0.1 µM) | 94.5 | 98.8 | 89.9 | 112 | 92.3 | 80.6 |
| Clc1ccc(Nc2nnc(Cc3ccncc3)c3ccccc23)cc1 [vatalanib] + COc1cc(Nc2ncc(F)c(Nc3ccc4c(n3)NC(=O)C(C)(C)O4)n2)cc(OC)c1OC [Tamatinib] (first compound 2 µM, partner dose 0.4 µM) | 82.7 | 80 | 63.9 | 71.5 | 86.7 | 109 |
| COCC[n+]1c2c(n(Cc3cnccn3)c1C)C(=O)c1ccccc1C2=O + COc1ccc(COc2ccc(Cc3cnc(N)nc3N)cc2OC)cc1 [GW2580] (first compound 0.0004 µM, partner dose 1 µM) | 104 | 97.2 | 99.2 | 98.6 | 155 | 101 |
| COCC[n+]1c2c(n(Cc3cnccn3)c1C)C(=O)c1ccccc1C2=O + O=C(O)C(=O)Nc1sc2c(c1C(=O)O)CCNC2 [TCS401] (first compound 0.0004 µM, partner dose 1.66667 µM) | 87.3 | 91.9 | 89.6 | 99.8 | 111 | 84 |
| Nc1cccc2c1CN(C1CCC(=O)NC1=O)C2=O (centres undefined) [lenalidomide] + CCCCCCCCCCCC1=C(O)C(=O)C=C(O)C1=O [Embelin] (first compound 1 µM, partner dose 1.2 µM) | 100 | 105 | 97.5 | 100 | 115 | 109 |
| O=C(CCCCCCC(=O)Nc1ccccc1)NO [vorinostat] + C[C@@H]1CCN(C(=O)CC#N)C[C@@H]1N(C)c1ncnc2[nH]ccc12 [CP690550] (first compound 0.08 µM, partner dose 1 µM) | 104 | 95.4 | 104 | 104 | 93.1 | 83.1 |
| O=C(CCCCCCC(=O)Nc1ccccc1)NO [vorinostat] + Oc1nc(-c2ccc(C(F)(F)F)cc2)nc2c1CSCC2 [XAV939] (first compound 0.08 µM, partner dose 2 µM) | 91.7 | 64.6 | 88.3 | 97.7 | 80.8 | 74.3 |
| Nc1cccc2c1CN(C1CCC(=O)NC1=O)C2=O (centres undefined) [lenalidomide] + COc1cc2ncnc(Nc3ccc(Oc4ccccc4)cc3)c2cc1OC [SrcI1] (first compound 1 µM, partner dose 2 µM) | 102 | 111 | 91.5 | 84.7 | 121 | 119 |
| Nc1cccc2c1CN(C1CCC(=O)NC1=O)C2=O (centres undefined) [lenalidomide] + CN(C)S(=O)(=O)c1ccc2c(c1)/C(=C/c1cc3c([nH]1)CCCC3)C(=O)N2 [SU6656] (first compound 1 µM, partner dose 0.4 µM) | 64.2 | 97.6 | 83.4 | 94.7 | 96.8 | 117 |
| C#Cc1cccc(Nc2ncnc3cc(OCCOC)c(OCCOC)cc23)c1 [erlotinib] + COc1cc(N2CCC(N3CCN(C)CC3)CC2)ccc1Nc1ncc(Cl)c(Nc2ccccc2S(=O)(=O)C(C)C)n1 [NVP-TAE684] (first compound 0.8 µM, partner dose 0.08 µM) | 92.2 | 98.9 | 70.8 | 73.8 | 107 | 94.7 |
| Clc1ccc(Nc2nnc(Cc3ccncc3)c3ccccc23)cc1 [vatalanib] + Cc1cc(N2CCOCC2)cc2[nH]c(-c3c(NC[C@@H](O)c4cccc(Cl)c4)cc[nH]c3=O)nc12 [BMS536924] (first compound 2 µM, partner dose 0.2 µM) | 100 | 99.5 | 84.9 | 94.5 | 91.5 | 88.3 |
| C#Cc1cccc(Nc2ncnc3cc(OCCOC)c(OCCOC)cc23)c1 [erlotinib] + O=C1NC(=O)/C(=C/c2ccc(-c3ccc(F)cc3O)o2)S1 [AS252424] (first compound 0.8 µM, partner dose 1 µM) | 98.7 | 98.8 | 79.9 | 90.9 | 83.5 | 95.5 |
| Cn1c(Nc2ccc(C(F)(F)F)cc2)nc2cc(Oc3ccnc(-c4ncc(C(F)(F)F)[nH]4)c3)ccc21 + O=c1cc(-c2cccc3c2Sc2ccccc2S3)oc(N2CCOCC2)c1 [KU55933] (first compound 0.08 µM, partner dose 1 µM) | 52.5 | 84.7 | 67 | 46.2 | 72.1 | 78 |
| Nc1cccc2c1CN(C1CCC(=O)NC1=O)C2=O (centres undefined) [lenalidomide] + Cn1nnc2c(C(N)=O)ncn2c1=O [temozolomide] (first compound 1 µM, partner dose 2 µM) | 82.9 | 104 | 79.5 | 96.7 | 108 | 94.9 |
| COCC[n+]1c2c(n(Cc3cnccn3)c1C)C(=O)c1ccccc1C2=O + O=C(Nc1ccccc1)c1cc([N+](=O)[O-])ccc1Cl [GW9662] (first compound 0.0004 µM, partner dose 2 µM) | 91.5 | 93.8 | 102 | 105 | 132 | 95.3 |
| O=C(CCCCCCC(=O)Nc1ccccc1)NO [vorinostat] + Cc1cc([N+](=O)[O-])ccc1NS(=O)(=O)c1cc(Cl)ccc1Cl [FH535] (first compound 0.08 µM, partner dose 1 µM) | 91.3 | 114 | 98.5 | 92.7 | 91 | 101 |
| OCc1c[nH]c2ccccc12 [Indole-3-carbinol] + Cc1nc(Nc2ncc(C(=O)Nc3c(C)cccc3Cl)s2)cc(N2CCN(CCO)CC2)n1 [dasatanib] (first compound 0.8 µM, partner dose 0.004 µM) | 81 | 77.6 | 65.8 | 116 | 90.4 | 85.8 |
| C#Cc1cccc(Nc2ncnc3cc(OCCOC)c(OCCOC)cc23)c1 [erlotinib] + O=C(Nc1cccc(Cl)c1)Nc1ncc(CCNc2ncnc3ccsc23)s1 [SNS314] (first compound 0.8 µM, partner dose 0.0008 µM) | 85.7 | 87.4 | 80.7 | 92.3 | 81.6 | 72.2 |
| Clc1ccc(Nc2nnc(Cc3ccncc3)c3ccccc23)cc1 [vatalanib] + CCc1ccc(CCOc2ccc(CC3SC(=O)NC3=O)cc2)nc1 [pioglitazone] (first compound 2 µM, partner dose 2 µM) | 92 | 97.3 | 101 | 78.4 | 71.7 | 82.6 |
| COCC[n+]1c2c(n(Cc3cnccn3)c1C)C(=O)c1ccccc1C2=O + N#Cc1c(O)c2c(-c3ccc(-c4ccccc4O)cc3)csc2[nH]c1=O [A769662] (first compound 0.0004 µM, partner dose 2 µM) | 92.5 | 96.8 | 98.1 | 91.3 | 127 | 100 |
| O=C(CCCCCCC(=O)Nc1ccccc1)NO [vorinostat] + CCc1ccc(CCOc2ccc(CC3SC(=O)NC3=O)cc2)nc1 [pioglitazone] (first compound 0.08 µM, partner dose 2 µM) | 92.8 | 99.5 | 103 | 96.2 | 90.8 | 91.7 |
| O=C(CCCCCCC(=O)Nc1ccccc1)NO [vorinostat] + CN(C)S(=O)(=O)c1ccc2c(c1)/C(=C/c1cc3c([nH]1)CCCC3)C(=O)N2 [SU6656] (first compound 0.08 µM, partner dose 0.4 µM) | 82.1 | 108 | 107 | 105 | 100 | 109 |
| O=C(CCCCCCC(=O)Nc1ccccc1)NO [vorinostat] + CC(C)CCN1c2nc(Nc3cc(F)c(O)c(F)c3)ncc2N(C)C(=O)C1C [BID1870] (first compound 0.08 µM, partner dose 0.2 µM) | 91 | 109 | 100 | 88 | 95.5 | 88.1 |
